In all, about 4,500 sequences were measured (“median log2 fold change of GCK-ALFA target abundance (FLAG IP / Myc IP barcode read proportion)”: median about 0.078, lowest 2% from about -0.6 on). This is one part of the list.
B1: GBRAP_184_5308 (protein)
chain: KVLHVTIEAKNAEEAIKKIKEAAEKAKKEGAKLEIDLYLENVDVEGFKKILEYLKKLKEEGILKSATIDLLDEKSEEEVDKLVKYADEAGVKLVVALSDE
B2: GBRAP_160_4012 (protein)
chain: MEEIEELIKEIEEEFEELKEWLKGESPENRLTIVRGTAGDILQLVFDSPSVSDETEDKIAEILDELVAWFEENANASLEEWEAAIDETLEKIKKLLEEDK
B3: GBRAP_184_5324 (protein)
chain: EVIHKVIEVETAEEAKEKLEELKKEAKKSGKKYLVTIELKNATAELIETVAEEIKKMKEEGIDAEFIVVINDPVDEELLDIAVEKMDEAGAKVVAALEDE
B4: GBRAP_139_3702 (protein)
chain: MTLEEKIEEAKRLTKEMEENPEESLEALVKLLNSLSEEEAEKALKAVTEVMAELPLDEFEKLADALLEKAEEEIEDEDKVLILEGVLNGGLARKAAEEEA
B5: GBRAP_160_4342 (protein)
chain: EEEKEKLLKFVDEEFDETKELIEGLSIEQRKVLISDTFGRIIMELSESSIVSDETEDKVREIEDELLAYLDANPDLSEEEIKKLIEEAREKVKEVIEKET
B6: GBRAP_35_5591 (protein)
chain: EITEIILETAEDYAEAAIYAIRNESIEEAIAALKAFIRTMRLAIEDLKDDAEALKKLAELIKRVIEEVKKYRSDNPEIQKLLKELEKLLKEAEKKAKEVE
B7: GBRAP_160_3970 (protein)
chain: SEAVEKLKKEIEEIFDEAKEMIKGETFEERLTVVRVAVGEVLLLAMESPLVSDEAEEKIAEIGDALIAELEANPDYTEEEIKALIEKAREEVIKVIEEDA
B8: GBRAP_11_2896 (protein)
chain: KKEKLKEAAELAEKAAKLLEELIKEGPDNEELRKKAEEALEKLLELAKKYLDESSVELAESALELFEKAKEDPENAKEYLEQALAYVRVLEGQVLLEIEE
B9: GBRAP_52_5987 (protein)
chain: MEEKARKIAEELVELRLAGKEEEAKKLIKEIVATLSEEEIKLIFEELARMAKTANPEEIDAIVDIALDLADAALEAGFDEAEVDDQLARVAAAAVEALQK
B10: GBRAP_35_5515 (protein)
chain: STDDTIADMLAASLEDLVLAVDDVPPDTLATMTLQYARAAREVIEAERDNIAGARRIAARLEALGAAIRARGLDDPRLQAAADAVDAVLALAREVAAREE
B11: GBRAP_128_3219 (protein)
chain: AAEEAVERARELLEELKEADEEEREEIARELAELVASLPVEVAEAVAEVVEELAPELSEEDLDILMDAFEEAARARSDERSLVLAEIAIIFGQELLELEE
B12: GBRAP_184_5358 (protein)
chain: EVRHLSVTVETKEEAVEKLAEAREEIRASGLPTVLVVELKNADLETVETVMELLAELREEGLIERGIVVVDDDRSEEEIDKMVELADRYGVDLVVAIPEE
B13: GBRAP_160_4717 (protein)
chain: SETAEKLKEYVDEEFDEAEELMKGESIEQRAIILEGTVGEIIMELFENPDASDELIDEVLKIGDEAVATLKANPDLSDEEIEELLDEARDKMKEAIDKHL
B14: GBRAP_11_2901 (protein)
chain: KKEKLKELAKLLKKLIELLKKLLKEGPENEELLEEALKVAEKALELAKEVLDESDVELAKELVRLLKKAKEDPENAVEYLKQALAIAQVLLGQVLLEIEE
B15: GBRAP_128_3451 (protein)
chain: SVEEAAERARRVMEAMKAADLEEARALARELAAWLGTLSLEEAEAAMETLEELAPELSAEKLDILADVLREARPQLSPEKARLAADVEVELLNEAEEKEE
B16: GBRAP_128_3381 (protein)
chain: IDEEKLEKVKKLVDEMIKASVEEVRKLTREFIEFLTTLSPEEQEAAVEILEEKLPEFTAEQLEVIADVIEEAMPSLDPYLANLLAGLRVEALNLAVEKEE
B17: GBRAP_52_5843 (protein)
chain: MEEKARKLAEELVKLAKAGDEAGLKAKIAEIVATLTEEEVMKVLKELAKLAATADPETAEVIWKVAEALADAAAAAGFDEMELSAGLADVGAAVYKALQK
B18: GBRAP_52_6268 (protein)
chain: MEEEAEKIAKEFIEVTLTKSEEEVKEFAKKVVETKSQELIAKILKIVVEKSKELNAEELEKLLEAFLILEDELEKAGKDTLPAEDAAAELAKLHMEKLKE
B19: GBRAP_52_6230 (protein)
chain: MEEEMEKLVKEMIELVKKGDLEGARKLAEKIAEELNDEELEIFIEALAKLAEESPLEERPYFEKLAEIMAEVFEEKGKDEVLIDLLEARVAAALYKREQK
B20: GBRAP_139_3696 (protein)
chain: SELEKLIEKARELTKKTKEDPEKSIEEIVELISSVSEEEAEKLVKAIAEELSKLPLDEAEKLADLLIEKAEEKIKDEDKVRIVEAELNGMLARKAYEEEL
B21: GBRAP_160_4790 (protein)
chain: MERVEEVARRFREALEEALKLAEGESNEERVAIFDVELGSAILELEEEGLLNDEEEEVAVEVRDELVARVRANPDLTPEELRALAEEAVRRLRERLKELE
B22: GBRAP_160_4834 (protein)
chain: KEKVEEAKKYIDEEFEKIIEMMKGETTEQRAAIVRVGIGEIIMYLREKGVATDELEDFLIEEEDRLVATILANPDLTDEELKALIEETRKRIKEALEKES
B23: GBRAP_78_6712 (protein)
chain: KLEELLDKAIETLNEAARLALELPEERSNEILDLLVEASNLLEEVKEPGVSKEEALKKLKEAEKLLKKALELLGEDDKELRKKVEEALKLVKKAIEELKK
B24: GBRAP_139_3723 (protein)
chain: AEKEEAIKKAVELVKKYKDDLEKLAEELAKLIASVDDETALAIARAAAEALKDYSWEKWEELIELLEKELKKLGLDEDRILAIAGEMEAVAAQHLIEKEK
B25: GBRAP_57_6471 (protein)
chain: EERLKKVREHAEAALKLIEAGAPTEEVLAEIAKALEELSEETLRDILLIADPSAEYDVSKEEARARLLALARAYLEAGDTEAVRRLVRLIEGQAEMDATE
B26: GBRAP_43_5762 (protein)
chain: SKELVEGAIDFALLALEEPEISEETKLKAIKAALGLAADEGYFDKEEVLELIRAAGKSLSKEELEKLAAFLKELAKKYPELAETLKEALAILEKAIAAKK
B27: GBRAP_160_4682 (protein)
chain: SEKVEKAKKFIEEEFDEVLSLYDEMTPEQLAAAVRVAFGEIILELEELGLLTEEVEKVILEEEEKIVKTILENPNITKEEFKKLLEEAKKKIVEELEKAE
B28: GBRAP_160_4314 (protein)
chain: MEEIEELKKEIEELVEEAKEMIKGQSAEERRTIARVTLGDILLAVEENPAVSDETEEKVAEIVDAAEARLDANPDLTEEEVKALLEETREKILELLESEL
B29: GBRAP_160_4344 (protein)
chain: SEEKEKLLKFVDEEFEEAIELIKGESIEQRKVIISGTFGEILMELSESPIISDELEDEVREIEDELLEYLDKNPDLSEEEIKELIKEAREKVKEAIEKHT

Molecular target: GABARAP, O95166
Assay: median log2 fold change of GCK-ALFA target abundance (FLAG IP / Myc IP barcode read proportion) (log2 ratio); each designed protein is fused to an ALFA-tag nanobody in HEK293 cells to bring the named protein to FLAG-tagged glucokinase (GCK); Myc marks an untargeted standard; higher = target protein stabilised (more abundant)
Details: target protein: 3xFLAG-MCP-GCK-ALFA reporter; HEK293 landing pad (RPLP)
In short: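 HEK293 landing-pad cells received a recombined binder library fused to the ALFA nanobody and were induced with 2 μg mL^−1 doxycycline, then transfected with a plasmid encoding a FLAG-tagged target and a Myc-tagged standard. Lysates were collected after 48 h for anti-FLAG and anti-Myc immunoprecipitation, and the circular RNA barcodes were reverse transcribed, amplified and sequenced. Target abundance for each binder is the median log2 ratio of FLAG to Myc barcode read proportions. Barcodes had to reach a proportion of at least 10^−7 in both replicates, each binder needed at least 3 barcodes per replicate, a pseudocount of 10^−6 was applied, and the two replicates were pooled.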

Chain of GABARAP, O95166 (O95166 whole entry, the tested form may be a part): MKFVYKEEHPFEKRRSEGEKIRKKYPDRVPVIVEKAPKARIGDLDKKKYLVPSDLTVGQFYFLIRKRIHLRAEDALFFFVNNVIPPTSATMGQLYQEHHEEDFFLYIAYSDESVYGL

Binder	median log2 fold change
B1	0.0556
B2	0.0135
B3	-0.098
B4	0.262
B5	0.31
B6	0.144
B7	-0.145
B8	0.203
B9	-0.219
B10	0.161
B11	-0.331
B12	-0.0422
B13	-0.000956
B14	0.36
B15	0.195
B16	0.0613
B17	0.0998
B18	0.181
B19	0.244
B20	0.209
B21	0.0641
B22	0.138
B23	0.121
B24	0.0702
B25	0.303
B26	-0.0634
B27	-0.333
B28	-0.298
B29	-0.232

From the supplement of paper PMC12632987
